According to PubChem BioAssay AID504845 (National Center for Advancing Translational Sciences (NCATS), 2011):
The campaign covered roughly 390,000 compounds. About 150 (0.038%) were called active. The shares of active, inactive and inconclusive entries below differ from those in the screen. The call rests on the fitted dose curve; in most records, active means well fitted inhibition curve with a large enough effect; inconclusive means small, poorly fitted or top-dose-only effect; inactive means no such curve, though single readings can be large or run the other way. Where the call is inconclusive, the potency comes from a doubtful curve fit.

Each compound was assayed against Regulator of G-protein signaling 4 (Homo sapiens) (UniProt P49798) (assay: Inhibitors of Regulator of G Protein Signaling (RGS) 4: qHTS). Settings: Transcreener GDP fluorescence polarization, RGS4-accelerated GTP hydrolysis; series mostly up to 114 µM.
Procedure, shortened: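 MLSMR compounds (23 nl, pin-transferred) preincubated 10 min at room temperature with a 500nM (2x) first reagent, then RGS4 at 900nM (2x) plus Transcreener GDP mix added; fluorescence polarization (620/688 nm) read before and after 90 min at 30 °C.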
Further: nearly all actives have a fitted effect of over 75% in size.
Potency means the concentration at half of the fitted maximal effect; tags describe the fitted curve by direction and shape.

Chain of UniProt P49798 (P49798 whole entry, looked up): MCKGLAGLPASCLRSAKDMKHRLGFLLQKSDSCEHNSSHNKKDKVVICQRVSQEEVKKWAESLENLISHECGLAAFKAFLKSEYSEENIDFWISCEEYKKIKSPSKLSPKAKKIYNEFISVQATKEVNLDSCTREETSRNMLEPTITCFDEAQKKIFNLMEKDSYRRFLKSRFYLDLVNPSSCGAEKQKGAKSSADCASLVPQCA

| SMILES | Potency |
| --- | --- |
| CC1=C(CO)C(=O)OC([C@@H](C)C2CC[C@H]3C4C[C@H]5O[C@]56[C@@H](O)C=CC(=O)[C@]6(C)C4CC[C@]23C)C1 (stereo not given in full) | inconclusive: 50.1 µM [inhibitor, partial curve, poor fit] |
| CCC(=O)OCc1c(C(F)(F)F)nn(C)c1Sc1ccc(F)cc1 | inconclusive: 89.1 µM [inhibitor, single point] |
| CN(C(=S)Nc1ccc(SC(F)F)cc1)c1ccc(O)cc1 | inconclusive: 56.2 µM [inhibitor, partial curve, poor fit] |
| CCN1CCN(Cc2ccc(NC(=O)c3cc(NC(=O)c4cncc(-c5ccc(C#N)cc5)c4)cc(OC)c3)cc2C(F)(F)F)CC1 | inconclusive: 20 µM [inhibitor, full curve, poor fit] |
| Cc1ccc(NC(=O)Nc2cccc(Cl)c2)c(C(=O)O)c1 | inconclusive: 39.8 µM [inhibitor, full curve, poor fit] |
| COC(=O)c1ccc(NC(=S)N(Cc2cccnc2)Cc2ccco2)cc1 | inactive |
| COc1ccccc1NC(=O)NCCCN1CCN(c2ccc(F)cc2)CC1 | inactive |
| COC(=O)C1=C(C)NC(C)=C(C(=O)OC)C1c1cn(-c2ccccc2)nc1-c1ccco1 | inconclusive: 89.1 µM [inhibitor, single point] |
| CCC(NC(C)C)C(O)c1ccc(O)c2[nH]c(=O)ccc12 (stereo not given) | inactive |
| COc1cc2nc(CN3CCN(S(=O)(=O)c4ccc(C)c(C)c4)CC3)[nH]c(=O)c2cc1OC | inconclusive: 50.1 µM [inhibitor, partial curve, poor fit] |
| CCCC(=O)N(C1CC(C)C(C#N)(C#N)C1(C#N)C#N)N(C)C (stereo not given) | inconclusive: 79.4 µM [inhibitor, partial curve, poor fit] |
| Cc1ccc(C(CCN(Cc2ccccc2)C(=O)c2ccco2)c2ccco2)cc1 (stereo not given) | inconclusive: 50.1 µM [inhibitor, partial curve, poor fit] |
| C=CCOc1ccc(C2C(C(=O)c3cccs3)=C(O)C(=O)N2c2nnc(C)s2)cc1 (stereo not given) | inconclusive: 79.4 µM [inhibitor, partial curve, poor fit] |
| Cc1ccc(OCCOCCOc2cccc3cccnc23)c(Br)c1 | inconclusive: 50.1 µM [inhibitor, partial curve, poor fit] |
| O=C(Cc1ccsc1)N1CCc2c([nH]c3ccccc23)C1c1ccccn1 (stereo not given) | inconclusive: 100 µM [inhibitor, single point] |
| CC(=O)N(c1ccc2oc(=O)sc2c1)S(=O)(=O)c1cccc2cccnc12 | inconclusive: 20 µM [inhibitor, full curve, poor fit] |
| Oc1c(/C=N/c2ncn[nH]2)ccc2ccccc12 | inconclusive: 50.1 µM [inhibitor, partial curve, poor fit] |
| C=Cc1ccc(N=Cc2c(O)ccc3ccccc23)cc1 | inconclusive: 100 µM [inhibitor, single point] |
| O=C(O)c1ccc(N/N=C/c2ccc(OC(=O)c3ccccc3Cl)cc2)cc1 | inactive |
| Cc1nc2ccc(NC(=O)c3ccc(Cl)c([N+](=O)[O-])c3)cc2s1 | inactive |

| SMILES | Potency |
| --- | --- |
| CCCC(=O)Nc1ccc2nn(-c3ccc(OC)cc3)nc2c1 | inconclusive: 44.7 µM [inhibitor, partial curve, poor fit] |
| CCOc1cc(/C=C2\CCCc3c2nc2ccccc2c3C(=O)O)ccc1OC | inactive |
| CNc1ncc(C(=O)c2ccc(Cl)cc2)s1 | inactive |
| CN(C(=O)COC(=O)c1ccc(Cl)c(S(=O)(=O)NCc2ccccc2)c1)C1CCS(=O)(=O)C1 (stereo not given) | inconclusive: 100 µM [inhibitor, single point] |
| Cc1cccc(C(=O)N2CCc3cc(CNC(=O)c4cc5ccccc5[nH]4)ccc32)c1 | inactive |
| COc1ccc(CN2CCN(Cc3ccc(C(F)(F)F)cc3)CC2)c(OC)c1 | inactive |
| CNc1n[nH]c(=S)s1 | inconclusive: 20 µM [inhibitor, full curve, poor fit] |
| CC(C)Oc1ccc(C(=O)/C=C2/C(=O)Nc3ccccc32)cc1 | inconclusive: 50.1 µM [inhibitor, partial curve, poor fit] |
| COc1cc(NC(=S)N2CCCC(C)C2)c(OC)cc1Cl (stereo not given) | inconclusive: 56.2 µM [inhibitor, partial curve, poor fit] |
| CCC1CCCCN1C(=O)COC(=O)c1cc(=O)[nH]c2ccccc12 (stereo not given) | inactive |
| C/C=C/c1ccc(OCCCCN(C)Cc2ccccc2)c(OC)c1 | inactive |
| Cc1ccc(C(=O)NNC(=O)CSc2nnc(-c3ccncc3)n2C)cc1 | inactive |
| N#Cc1c(-c2ccc(Cl)cc2)cc(-c2cccs2)nc1SCC(=O)O | inconclusive: 79.4 µM [inhibitor, partial curve, poor fit] |
| COc1ccc(N=C2S/C(=C\c3ccc(Cl)c([N+](=O)[O-])c3)C(=O)N2CCN(C)C)cc1 | inactive |
| CC(C)c1ccc(S(=O)(=O)/N=C2\C=C(NS(=O)(=O)c3ccccc3)C(=O)c3ccccc32)cc1 | inconclusive: 79.4 µM [inhibitor, partial curve, poor fit] |
| Cc1ccc(C(=O)O/N=C(\N)c2ccccn2)cc1 | inactive |
| O=C(C#Cc1ccccc1)c1cccc([N+](=O)[O-])c1 | inconclusive: 11.2 µM [inhibitor, full curve, poor fit] |
| CCOC(=O)c1c(NC(=O)c2ccc(C)cc2)sc2c1CC(C)(C)OC2 | inconclusive: 56.2 µM [inhibitor, partial curve, poor fit] |
| O=c1nc2s/c(=C\c3ccco3)c(=O)n2nc1Cc1ccc(F)cc1 | inconclusive: 31.6 µM [inhibitor, partial curve, poor fit] |
| C#CCOCCOCCOCCNc1nc(N2CCN(C(=O)CCCCCCCCCCNC(=O)Cn3cc(C[C@@H](C)O)nn3)CC2)nc(N2CCN(C(=O)CCCCCCCCCCNC(=O)[C@@H]([C@H](C)CC)n3cc(CCCCCN)nn3)CC2)n1 | inconclusive: 79.4 µM [inhibitor, partial curve, poor fit] |
